Screen size: about 310,000 compounds; about 2,200 (0.71%) showed an effect of 50% or more. The effect is printed as a negative number. Some of the results follow.
These molecules were tested against human ether-à-go-go-related gene (hERG) potassium channel (human, UniProt Q12809) (assay: primary screen, population patch clamp on CHO cells stably expressing hERG).
human ether-à-go-go-related gene (hERG) potassium channel, sequence (Q12809 whole entry, looked up): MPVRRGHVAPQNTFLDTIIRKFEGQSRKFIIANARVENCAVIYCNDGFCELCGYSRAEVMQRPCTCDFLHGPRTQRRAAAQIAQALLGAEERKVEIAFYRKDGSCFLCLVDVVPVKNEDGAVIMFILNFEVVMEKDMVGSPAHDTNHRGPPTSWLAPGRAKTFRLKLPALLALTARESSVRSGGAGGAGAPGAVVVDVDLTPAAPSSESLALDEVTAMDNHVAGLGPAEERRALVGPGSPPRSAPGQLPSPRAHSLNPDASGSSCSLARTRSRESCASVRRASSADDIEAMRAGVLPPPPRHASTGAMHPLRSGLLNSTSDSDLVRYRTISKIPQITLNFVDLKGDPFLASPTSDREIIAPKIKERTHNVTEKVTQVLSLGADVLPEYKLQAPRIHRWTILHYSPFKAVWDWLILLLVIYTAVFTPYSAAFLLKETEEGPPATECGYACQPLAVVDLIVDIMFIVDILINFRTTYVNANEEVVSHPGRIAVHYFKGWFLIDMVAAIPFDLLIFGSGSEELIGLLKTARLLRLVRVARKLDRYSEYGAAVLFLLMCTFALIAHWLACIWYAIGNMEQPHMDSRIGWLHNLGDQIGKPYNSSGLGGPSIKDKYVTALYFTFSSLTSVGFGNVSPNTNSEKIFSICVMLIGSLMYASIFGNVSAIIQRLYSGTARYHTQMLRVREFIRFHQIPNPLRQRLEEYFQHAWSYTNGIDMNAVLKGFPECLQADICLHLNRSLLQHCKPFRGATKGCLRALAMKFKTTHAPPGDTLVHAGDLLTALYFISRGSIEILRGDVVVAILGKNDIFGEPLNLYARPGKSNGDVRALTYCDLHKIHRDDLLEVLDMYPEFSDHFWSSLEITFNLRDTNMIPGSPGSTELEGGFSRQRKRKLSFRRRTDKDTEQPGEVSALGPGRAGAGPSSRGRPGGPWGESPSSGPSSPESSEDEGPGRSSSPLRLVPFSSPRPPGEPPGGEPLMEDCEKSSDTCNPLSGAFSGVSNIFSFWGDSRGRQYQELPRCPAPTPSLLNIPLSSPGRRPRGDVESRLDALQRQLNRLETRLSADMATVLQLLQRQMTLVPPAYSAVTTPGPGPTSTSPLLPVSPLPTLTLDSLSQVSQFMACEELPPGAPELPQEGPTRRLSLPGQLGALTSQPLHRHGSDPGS

SMILES	hERG current change (%, negative = inhibition) at 1uM [%]
COc1ccccc1NC(=O)CCC(=O)OC(C)C(=O)c1ccccc1 (centres unmarked)	14.2
COc1cccc(NS(=O)(=O)c2ccc3c(c2)NC(=O)C(C)S3)c1 (centres unmarked)	-2.68
CCC(=O)Oc1cccc(C(=O)Nc2ccc(-c3nnc(-c4ccco4)o3)cc2)c1	7.4
CC(C)(C)c1ccc(/C=C/C(=O)Nc2ccncc2)cc1	8.86
COc1ccc(CCN(C)C(=O)c2cc(-c3ccccc3)nc3ccc(C)cc23)cc1OC	-2.82
CCN1CCCc2cc(CN(CCN3CCOCC3)C(=S)Nc3ccc(OC)c(Cl)c3)ccc21	10.1
COc1cc2ccccc2cc1C(=O)NC(=S)Nc1cccc(C(=O)O)c1	13.5
CCCn1c(SCC(=O)Nc2nc3ccccc3s2)nc2c1c(=O)n(C)c(=O)n2C	6.47
NC(N)=Nc1ccc(N=C(N)N)cc1	13.7
CC(C)Cc1nnc(NC(=O)c2cc(-c3ccncc3)nc3ccccc23)s1	5.36
CSc1c(CC(=O)NCCO)n(C)c2ccccc12	16.9
Cc1c(Cl)c([N+](=O)[O-])nn1CCCC(=O)Nc1sc2c(c1C#N)CCC2	-4.51
COc1cc(SC)ccc1C(=O)Nc1ccc(C)cc1	15.4
C=CC[N+]1(CC#Cc2ccccc2)CCCC1.[Br-]	16.6
CC(Oc1ccc2ccc(=O)oc2c1)C(=O)NCCCn1ccnc1 (centres unmarked)	32.6
COc1cccc(-c2c(C(=O)N/N=C(\C)c3cccnc3)nnn2-c2nonc2N)c1	24.9
COc1ccccc1N(C)S(=O)(=O)c1ccc(Cl)c(C(=O)Nc2cccc(C)n2)c1	8.95
O=C(Oc1ccc2c(=O)c(Oc3ccc4ccccc4c3)coc2c1)c1cncc(Br)c1	6.78
CCCCNC(=O)c1cn(C)c2ccc(S(=O)(=O)N3CC(C)CC(C)C3)cc2c1=O (centres unmarked)	-5.81

SMILES	hERG current change (%, negative = inhibition) at 1uM [%]
CCCCn1c(N)c(N(CCOC)C(=O)c2cc(-c3ccco3)nc3ccccc23)c(=O)[nH]c1=O	4.86
Cc1cc(NC(=O)CSc2nnnn2-c2ccc(C)c(C)c2)no1	9.56
COc1ccc(NC(=O)C2CCN(S(=O)(=O)c3ccc4[nH]c(=O)oc4c3)CC2)c(OC)c1	23.2
CC(=O)NS(=O)(=O)c1ccc(N=NN2CCCCCC2)cc1	16.1
Clc1ccccc1OCCCn1ccnc1	14.6
NC(=O)c1ccc(-c2noc(-c3ccccc3F)n2)cc1	7.87
O=C(CCSc1ccccc1)NC1CCCCCC1	6.43
CC(Sc1nc2sc3c(c2c(=O)n1-c1ccccc1)CCCC3)C(=O)O (centres unmarked)	6.44
CCC(C)(C)NC(=O)CCCSc1nc2ccccc2[nH]1	7.75
O=C(COC(=O)CNC(=O)c1sc2ccccc2c1Cl)NC1CCS(=O)(=O)C1 (centres unmarked)	5.29
CCOc1ccc(Cn2nnc(C(=O)NCc3ccccc3)c2N)cc1	13.2
CCn1c(C)c(C)c2cc(C(=O)N3CCN(c4cccc(C)c4C)CC3)ccc21	12.9
Cc1ccc(OCC(=O)Nc2ccc3c(c2)nc(CCN2CCOCC2)n3C)cc1	-19.8
CC1CCCCC1NC(=O)COC(=O)c1ccc2c(c1)OCCO2 (centres unmarked)	4.39
COc1ccccc1NC(=O)CN1CCN(c2ccccn2)CC1	5.94
Cc1ccc(Nc2nc(-c3ccncc3)nc3ccccc23)cc1	5.97
Cc1ccccc1Nc1nc(N)nc(CN2CCN(Cc3ccc4c(c3)OCO4)CC2)n1	-45.4
CS(=O)(=O)c1ccc2nc(NC(=O)Nc3ccc(Cl)c(Cl)c3)sc2c1	11.3
CCOc1ccc(S(=O)(=O)NCCC(=O)N2CCN(c3ccc(OC)cc3)CC2)cc1	-0.134

SMILES	hERG current change (%, negative = inhibition) at 1uM [%]
COc1ccccc1CCC(=O)N(Cc1ccccc1)c1c(N)n(Cc2ccccc2)c(=O)[nH]c1=O	15.6
CCN(CC)C(=O)CN1C(=O)NC2(CCc3ccccc3C2)C1=O (centres unmarked)	17.5
COc1ccc(NC(=O)c2cn(-c3ccccc3)nc2-c2cc3ccccc3o2)cc1	8.34
CC(C)(C)C1CCC(OCC(O)CN2CCCC2)CC1.Cl (centres unmarked)	3.85
COc1cc2c(cc1OC)C(C)N(C(=O)c1cc3n(n1)C(C(F)(F)F)CC(c1ccco1)N3)CC2 (centres unmarked)	8.83
CCOc1ncccc1C(=O)OCC(=O)N1CC(=O)Nc2ccccc21	8.47
CC1CC(O)(CC(O)(c2ccccc2)c2ccccc2)C(C)CN1C (centres unmarked)	11.2
C/C(=N/NS(=O)(=O)c1ccc(Cl)cc1)c1cccc(NC(=O)c2ccc(Cl)cc2Cl)c1	11.1
O=S(=O)(c1ccccc1)N1CCN(Cc2ccccc2)CC1	16.9
COc1cccc(/C=C2\SC(=S)N(CCC(=O)N3CCCCC3)C2=O)c1	16
COc1ccc(OC)c(N(CC(=O)NC2CCCCCC2)S(=O)(=O)c2ccc(C)cc2)c1	12
CC(=NC1CCCCC1)C1=C(O)c2ccccc2C1=O	3.46
C#CC1(NC(=O)NC(C)(C)C)CCCCC1	17.3
O=C(O)c1ccc(NC(=O)c2cn(-c3ccccc3)nc2-c2cccc(Cl)c2)cc1	15
CNCC(O)c1ccc(O)c(O)c1.Cl (centres unmarked)	16.6
COC(=O)C1CCN(C(=O)COc2cc3sc(C)nc3c3sccc23)CC1	6.44
O=C(CCn1[nH]c(=O)c2ccccc2c1=O)OC1CCCCC1	16.1
Cc1nc2c(C(=O)NCc3ccc4c(c3)OCO4)c[nH]n2c(=O)c1Cc1ccccc1F	2.53

— article PMC4336329 (PLoS ONE, 2015)
